Data from the supplement of paper PMC12217912.
Some of the results follow. Sequences were assembled here from the parent chain. Values near 0.05 are background.

B1: TEV protease; numbered along this chain (parent)
chain: MGESLFKGPRDYNPISSSICHLTNESDGHTTSLYGIGFGPFIITNKHLFRRNNGTLVVQSLHGVFKVKDTTTLQQHLVDGRDMIIIRMPKDFPPFPQKLKFREPQREERICLVTTNFQTKSMSSMVSDTSCTFPSGDGIFWKHWIQTKDGQCGSPLVSTRDGFIVGIHSASNFTNTNNYFTSVPKNFMELLTNQEAQQWVSGWRLNADSVLWGGHKVFMVKPEEPFQPVKEATQL

Variants of: B1
Assay: raw area under fraction-flipped curve 0-4 h after induction (AUC4h, not background-subtracted), DNA-recorder readout of cleavage of the substrate (dimensionless); higher = more cleavage of the substrate by the protease variant
Settings: temperature: 34 °C; time window: 0-4 h after rhamnose induction
Procedure: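 In vivo DNA recorder in E. coli TOP10(DE3) ΔrhaA at 34 °C. Each TEVp single-site mutant (parent TEVp 0) is paired with a single-site variant of the 7-mer TEVs (canonical ENLYFQ|S). The substrate sits between flexible linkers in a Bxb1-sfGFP-TEVs-SsrA fusion, so cleavage stabilises Bxb1 and speeds flipping of a recombination array, read by NGS. The value is the raw area under the fraction-flipped curve over 0-4 h after rhamnose induction (AUC4h), with ≥20 reads per time point. It is not background-subtracted; inactive controls average about 0.047.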
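Note: Bxb1 expression induced with 0.2% (w/v) L-rhamnose at OD600 near 0.5, cultures sampled hourly, flipped fraction per protease–substrate barcode pair counted by paired-end Illumina sequencing.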

Variant | area with substrate ENLYFAS | area with substrate ENLYFCS | area with substrate ENLYFDS | area with substrate ENLYFES | area with substrate ENLYFFS | area with substrate ENLYFGS | area with substrate ENLYFIS | area with substrate ENLYFKS | area with substrate ENLYFMS | area with substrate ENLYFNS | area with substrate ENLYFPS | area with substrate ENLYFSS | area with substrate ENLYFTS | area with substrate ENLYFVS | area with substrate ENLYFHS | area with substrate ENLYFWS | area with substrate ENLYFRS | area with substrate ENLYFLS | area with substrate ENLYFYS
R106C | 0.057 | 0.0753 | 0.0364 | 0.0619 | 0.061 | 0.0502 | 0.0599 | 0.0663 | 0.0736 | 0.0678 | 0.0753 | 0.0666 | 0.0565 | 0.0645 | – | – | – | – | –
R109A | 0.0462 | 0.0715 | – | 0.0721 | – | – | 0.0572 | 0.0582 | – | 0.0659 | 0.0583 | – | 0.0574 | 0.0601 | 0.0484 | 0.0574 | – | – | –
R109M | 0.0532 | – | – | 0.0541 | 0.0761 | – | 0.0455 | – | 0.0715 | – | – | – | – | – | 0.0581 | 0.0574 | – | – | –
R109N | 0.0566 | 0.0408 | 0.0499 | 0.1 | 0.0731 | 0.0716 | – | 0.0555 | 0.0629 | – | 0.0764 | 0.085 | 0.0578 | – | – | – | 0.0612 | – | –
R109S | 0.063 | 0.061 | 0.0674 | 0.0736 | – | 0.0679 | 0.0656 | 0.06 | 0.0652 | 0.0629 | 0.0732 | 0.0818 | – | 0.0598 | 0.0629 | 0.053 | 0.0622 | 0.0519 | 0.0734
T114G | 0.0362 | – | 0.0582 | 0.0692 | 0.0739 | – | 0.0569 | 0.057 | – | 0.0608 | 0.0628 | – | – | 0.0751 | – | – | 0.0622 | – | 0.0416
N116I | 0.0472 | – | – | 0.06 | 0.0501 | – | 0.0363 | – | – | 0.055 | – | – | – | – | 0.067 | – | – | – | –
L156A | 0.0312 | 0.0503 | 0.0278 | – | 0.0565 | 0.0642 | 0.0553 | 0.0703 | 0.0672 | 0.0507 | 0.0632 | 0.0826 | 0.0815 | 0.0541 | – | – | 0.0623 | 0.0874 | 0.0519
L156F | 0.0499 | 0.0548 | – | 0.0445 | 0.064 | – | 0.0584 | 0.0706 | 0.0888 | 0.0597 | 0.0332 | 0.0812 | 0.0613 | 0.0364 | – | 0.0467 | 0.0531 | – | –
L156P | 0.0506 | – | – | 0.0553 | 0.0674 | – | 0.0579 | 0.0601 | 0.0656 | 0.0459 | 0.0584 | – | 0.051 | 0.0554 | – | – | – | 0.0578 | 0.0547
Q151V | 0.063 | 0.0655 | 0.0695 | 0.0645 | 0.0688 | – | 0.065 | 0.0735 | 0.0815 | 0.047 | 0.0502 | – | 0.0454 | 0.0498 | 0.0625 | 0.0499 | 0.0668 | – | –
G136I | 0.0514 | – | – | 0.0585 | – | 0.0497 | 0.0629 | – | 0.0554 | 0.0632 | 0.0707 | – | 0.0379 | – | – | 0.0421 | 0.0436 | 0.0567 | –
S135T | 0.0513 | – | 0.0631 | – | 0.0856 | – | 0.0599 | 0.0585 | 0.0557 | – | 0.0617 | 0.0615 | – | 0.0446 | 0.056 | 0.0627 | – | 0.0676 | 0.0563
S135E | 0.0855 | – | – | – | – | 0.0416 | – | 0.0725 | 0.0495 | – | – | – | – | 0.0455 | 0.0551 | 0.0535 | 0.0623 | – | –
S135M | 0.0515 | – | 0.0599 | 0.0557 | 0.0538 | – | 0.0577 | 0.073 | 0.0592 | 0.0617 | 0.0605 | 0.0884 | 0.0651 | – | 0.0656 | 0.0635 | 0.0447 | 0.0603 | 0.042
W141D | 0.0422 | 0.0478 | – | 0.061 | 0.0628 | 0.0475 | 0.0381 | – | 0.0528 | 0.0541 | 0.0534 | 0.0666 | – | – | 0.058 | – | 0.0495 | 0.0581 | 0.0359
W141K | 0.0573 | 0.0381 | 0.0544 | – | 0.0666 | – | 0.051 | 0.0611 | 0.0469 | 0.0581 | 0.051 | – | 0.0569 | 0.0233 | – | – | 0.0476 | – | –
S130F | 0.0378 | 0.0611 | – | 0.083 | – | – | 0.0596 | 0.05 | – | 0.0638 | 0.0502 | – | 0.0789 | – | – | – | – | 0.0639 | –
S130A | 0.0571 | 0.0676 | – | 0.0383 | 0.0645 | – | 0.0483 | – | 0.0584 | – | 0.0619 | 0.0633 | 0.0649 | 0.0798 | 0.0626 | 0.0568 | – | 0.0529 | 0.0515
D149W | 0.0621 | 0.0657 | – | 0.0346 | – | – | 0.0613 | 0.0585 | 0.0532 | 0.0507 | 0.0492 | 0.0786 | 0.0417 | – | 0.0804 | 0.0644 | 0.0522 | – | –
D149F | 0.0555 | 0.0631 | 0.0535 | 0.0726 | 0.0604 | – | 0.0563 | 0.0717 | – | 0.0554 | 0.0556 | – | 0.0453 | 0.0452 | – | 0.0737 | 0.0641 | 0.0698 | 0.0498
V157T | 0.0644 | – | – | – | – | – | 0.045 | – | 0.0554 | 0.0607 | – | – | – | – | – | – | 0.0668 | 0.0623 | –
V157H | 0.0524 | 0.0499 | 0.0469 | 0.0622 | 0.0588 | 0.0431 | 0.0414 | 0.0531 | 0.0565 | 0.0531 | 0.0565 | 0.0574 | 0.0503 | 0.0491 | – | 0.0507 | 0.0617 | – | 0.0539
S158C | 0.066 | 0.0661 | 0.0516 | 0.0653 | – | – | – | – | – | – | 0.0541 | 0.064 | – | 0.0484 | 0.0635 | 0.0721 | – | 0.0633 | 0.0642
D137W | 0.065 | 0.0767 | – | 0.0674 | – | – | – | – | – | – | – | – | – | 0.0591 | – | – | 0.0515 | – | 0.0643
H143Y | 0.0638 | 0.0538 | – | – | 0.0655 | – | 0.052 | 0.0654 | 0.0592 | – | 0.0427 | 0.0744 | – | – | 0.0603 | 0.0474 | 0.0534 | 0.0303 | 0.0556
H143Q | 0.0579 | – | 0.0552 | 0.0616 | 0.0626 | 0.0786 | 0.0548 | 0.0528 | 0.0661 | 0.0578 | – | 0.0584 | – | – | 0.0573 | 0.0651 | 0.0455 | 0.0504 | 0.0656
H143S | 0.0604 | 0.0615 | 0.0513 | 0.0625 | 0.0618 | – | 0.0494 | – | 0.021 | 0.071 | 0.0776 | – | – | 0.0537 | – | 0.0464 | 0.0969 | 0.046 | 0.0644
